Measurements: a compilation of properties of binary mixtures (doi:10.1007/s10953-016-0465-y)
The densities may have been worked out from excess volumes.

Experiment: xn = mol fraction of the nth substance listed
Conditions: 101 kPa

COCCO + CCOS(=O)(=O)[O-].CC[n+]1ccn(C)c1
x2 = 0
Conditions	mass density [kg/m3]
298.15 K	960.7
308.15 K	951.7
318.15 K	941.9
328.15 K	932.6

CCOS(=O)(=O)[O-].CC[n+]1ccn(C)c1 + COCCO
mass density [kg/m3]
Conditions	298.15 K	308.15 K	318.15 K	328.15 K
x1 = 0.049	994.3	–	976.5	967.6
x1 = 0.0819	1013.9	–	996.6	988
x1 = 0.1453	1047	1038.7	1030.5	–
x1 = 0.1765	1061	1052.8	1044.9	1036.8
x1 = 0.2557	1092.4	–	1076.9	1069.1
x1 = 0.3386	–	1112	1104.4	–
x1 = 0.4472	–	1141	1133.5	1126.2
x1 = 0.5453	1169.5	1162.3	1155.1	1147.9
x1 = 0.6466	1188.2	–	1174	1167
x1 = 0.7562	1205.6	–	1191.7	1184.8
x1 = 0.8206	1214.7	1207.7	1201	1194.2
x1 = 0.8868	–	1216.5	–	–
x1 = 0.951	1231.2	1224.3	1217.6	1210.9
x1 = 1	1236.4	1229.5	–	1216.2
